Source: article PMC4336329 (PLoS ONE, 2015)
Out of some 310,000 compounds screened, about 2,200 (0.71%) showed an effect of 50% or more. The effect is printed as a negative number. The list shows a part of the results.

These compounds were tested against human ether-à-go-go-related gene (hERG) potassium channel (human, UniProt Q12809) (assay: primary screen, population patch clamp on CHO cells stably expressing hERG).
Sequence of human ether-à-go-go-related gene (hERG) potassium channel (Q12809 whole entry, looked up): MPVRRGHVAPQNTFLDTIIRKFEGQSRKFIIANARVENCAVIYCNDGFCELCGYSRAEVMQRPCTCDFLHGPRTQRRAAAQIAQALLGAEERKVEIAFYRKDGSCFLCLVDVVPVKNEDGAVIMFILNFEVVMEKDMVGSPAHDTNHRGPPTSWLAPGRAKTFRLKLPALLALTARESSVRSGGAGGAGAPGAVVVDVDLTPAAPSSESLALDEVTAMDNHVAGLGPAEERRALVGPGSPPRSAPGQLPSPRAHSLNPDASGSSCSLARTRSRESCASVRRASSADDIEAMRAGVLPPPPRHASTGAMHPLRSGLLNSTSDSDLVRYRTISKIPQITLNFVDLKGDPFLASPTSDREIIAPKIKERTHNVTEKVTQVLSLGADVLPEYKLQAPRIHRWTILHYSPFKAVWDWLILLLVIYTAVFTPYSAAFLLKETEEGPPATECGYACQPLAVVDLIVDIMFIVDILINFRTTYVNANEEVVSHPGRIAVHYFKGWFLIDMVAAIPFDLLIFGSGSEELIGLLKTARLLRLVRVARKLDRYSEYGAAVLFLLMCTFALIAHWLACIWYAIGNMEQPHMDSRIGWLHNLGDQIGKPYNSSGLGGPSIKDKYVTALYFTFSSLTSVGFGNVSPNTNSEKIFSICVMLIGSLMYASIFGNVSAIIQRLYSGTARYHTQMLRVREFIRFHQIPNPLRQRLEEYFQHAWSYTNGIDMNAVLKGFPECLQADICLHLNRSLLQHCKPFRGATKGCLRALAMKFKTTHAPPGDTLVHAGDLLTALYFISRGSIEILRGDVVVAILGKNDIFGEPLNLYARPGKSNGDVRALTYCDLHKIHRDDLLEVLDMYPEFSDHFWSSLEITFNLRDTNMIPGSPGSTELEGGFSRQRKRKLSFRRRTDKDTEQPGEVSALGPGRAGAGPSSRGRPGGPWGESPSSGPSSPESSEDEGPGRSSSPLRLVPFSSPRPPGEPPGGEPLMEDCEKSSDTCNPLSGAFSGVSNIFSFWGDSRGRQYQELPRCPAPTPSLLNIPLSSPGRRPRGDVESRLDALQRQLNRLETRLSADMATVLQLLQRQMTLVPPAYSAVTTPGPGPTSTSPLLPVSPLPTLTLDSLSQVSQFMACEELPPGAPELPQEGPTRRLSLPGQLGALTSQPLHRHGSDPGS

Row | SMILES | hERG current change (%, negative = inhibition) at 1uM [%]
1 | Cc1ccc(N2CC(=O)N(NC(=O)Nc3ccc(Cl)c(Cl)c3)CC2=O)cc1 | 4.68
2 | CCC(C)(C)NC(=O)C(c1ccccc1F)N(Cc1ccco1)C(=O)c1csnn1 (centres unmarked) | -1.71
3 | CCOC(=O)c1c(C)c(C(=O)NC(C)COC)c(C)n1CC (centres unmarked) | -2.56
4 | CCOc1ccc(CN2CCNC(=O)C2CC(=O)N(C)Cc2nonc2C)cc1 (centres unmarked) | 12.1
5 | COc1ccc(C(CC(=O)Nc2ccc(C)cn2)N2Cc3ccccc3C2=O)cc1 (centres unmarked) | 5.62
6 | CN=C1S/C(=C\c2ccc(SC)cc2)C(=O)N1C | 16.5
7 | Cc1ccc(CCNC(=O)CN2CCN(Cc3ccccc3F)C2=O)cc1 | 6.24
8 | Cc1cccc2cc(C3CC(c4cccs4)=NN3C(=O)CCC(=O)O)c(Cl)nc12 (centres unmarked) | -1.16
9 | COc1cc2nc(CSc3ncn[nH]3)[nH]c(=O)c2cc1OC | 12.5
10 | COc1cc(NC(=O)C(=O)Nc2ccc3nc4n(c(=O)c3c2)CCCCC4)cc(OC)c1OC | 11
11 | COc1ccccc1CNC1CCCc2ccccc21.O=C(O)C(=O)O (centres unmarked) | 11.2
12 | Cc1ccc(NC(=O)c2cc(C(C)(C)C)nn2Cc2ccccc2)cc1 | -0.288
13 | CC(C)c1ccc(C(C(=O)NC2CCCCC2)N(C(=O)c2ccccn2)c2cccnc2)cc1 (centres unmarked) | 13.5
14 | CCC(C)NC(=O)CCSc1ccc(C)cc1 (centres unmarked) | 9.62
15 | CCOc1ccc(-c2nnn(CC(=O)NCc3ccc(F)cc3)n2)cc1OCC | -2.25
16 | CCOC(=O)c1sc(SCC(=O)Nc2ccc(N(C)C)cc2)nc1N | 9.91
17 | CCNC(=O)C1OC(n2cnc3c(N)ncnc32)C(O)C1O (centres unmarked) | 8.87
18 | CC[C@@](C)(NS(=O)(=O)OCC(Cl)(Cl)Cl)c1ccccc1 | 2.3
19 | COc1cc(C2C(C(C)=O)=C(O)C(=O)N2CCN(C)C)ccc1O (centres unmarked) | 8.74

Row | SMILES | hERG current change (%, negative = inhibition) at 1uM [%]
20 | Nc1ccc(-n2cnc3cc([N+](=O)[O-])ccc32)cc1 | 8.92
21 | CC(=O)Nc1cccc(NC(=O)CSc2nc(=O)n(CCCN3CCOCC3)c3c2CCC3)c1 | 9.44
22 | Cc1ccccc1NC(=O)c1cn2c(nc3ccccc32)c(C#N)c1C | 9.11
23 | O=C(Nc1cccnc1Cl)c1ccc(=O)oc1 | 12.5
24 | CCCn1cnc2c(sc3nc4c(cc32)CSC(C)(C)C4)c1=O | 9.79
25 | COc1ccc(Nc2cc3n(c(=O)n2)CCc2cc(OC)c(OC)cc2-3)cc1 | 7.64
26 | Cc1c(C(=O)N(C)c2ccccc2)oc2c1C(O)CC(C)(C)C2 (centres unmarked) | 13.5
27 | COc1ccc(NC(=O)CCC(=O)N2CCOCC2)c([N+](=O)[O-])c1 | 6.51
28 | CCCCN1C(=O)NC(=O)/C(=C/c2cnc(SC)nc2)C1=O | 7.6
29 | CS(=O)(=O)c1ccc(-c2cccc(NC(=O)c3ccc(Br)o3)c2)nn1 | 9.28
30 | COC(=O)C1=C(C)N(C)C(=O)NC1c1ccc(O)c(OC)c1 (centres unmarked) | 10.4
31 | CCCCCOc1ccc(/C=N/NC(=O)c2nnn(-c3nonc3N)c2CN2CCCCCC2)cc1 | 11.5
32 | Cc1ccc(C2=NN=C(NC(=O)CSc3nncn3C)SC2)cc1 | 6.42
33 | O=C(NCc1cccnc1)c1cc([N+](=O)[O-])ccc1N1CCOCC1 | -11.7
34 | COc1ccc(NS(=O)(=O)c2cc(C(=O)O)ccc2C)cc1 | 0.856
35 | CC(Oc1ccc(C(C)(C)C)cc1)C(=O)NCC(c1ccco1)N1CCCC1 (centres unmarked) | -1.74
36 | CC(Oc1ccc2c3c(c(=O)oc2c1)CCC3)C(=O)N[C@@H](Cc1ccccc1)C(=O)O (some centres unmarked) | 2.76
37 | C=CCCCCCCCCC(=O)NNC1CC(=O)N(c2ccccc2)C1=O (centres unmarked) | 13.1
38 | Cl.O=C(CN1CCCCC1)Nc1ccc(NC(=O)c2ccccc2Cl)cc1Cl | 6.62

Row | SMILES | hERG current change (%, negative = inhibition) at 1uM [%]
39 | Cc1ccc(C(CNC(=O)c2ccc(Br)o2)N2CCN(C)CC2)cc1 (centres unmarked) | -10
40 | Cc1n[nH]c(=O)c2c(NC(=O)COC(=O)Cc3c(F)cccc3Cl)oc(C)c12 | 13.4
41 | S=C(NC1CCCC1)N1CCOCC1 | 6.59
42 | Cc1ccc(C(=O)C(OC(=O)CN2C(=O)c3ccccc3C2=O)c2ccccc2)cc1 (centres unmarked) | -8.22
43 | CC(=O)c1cccc(NC(=O)c2cc3nc(C)cc(C)n3n2)c1 | 9.35
44 | CCCOc1ccccc1Nc1nnc(C)c(=O)[nH]1 | -1.29
45 | Cc1ccc(O)c(C(=O)c2cnc(/N=C(\N)N(C)C)nc2)c1 | 11.8
46 | CC(Sc1ccc(S(=O)(=O)N2CCCC2)cn1)C(N)=O (centres unmarked) | 8.49
47 | COc1ccc(C2C(C(C)=O)=C(O)C(=O)N2c2cccnc2)cc1OC (centres unmarked) | 7.47
48 | COc1ccc(-c2nn(-c3ccccc3)cc2C(=O)NC(=S)Nc2cc(Cl)ccc2Cl)cc1 | 4.81
49 | C(=C\c1nc(-c2ccccc2)no1)/c1ccccc1 | 17.6
50 | CN(C(=O)COC(=O)C1CCN(S(=O)(=O)c2ccc3c(c2)OCCO3)CC1)c1ccccc1 | 6.12
51 | CCOC(=O)Cn1c(C)[n+](C)c2cc(Cl)c(Cl)cc21.[I-] | -3.63
52 | Cc1cc(N2C(=O)C(O)=C(C(=O)c3cc4ccccc4o3)C2c2cccc(Cl)c2)no1 (centres unmarked) | 23.7
53 | O=C(Nc1ccc(Cl)cc1C(=O)NCCN1CCOCC1)c1ccc(Cl)cc1Cl | -4.27
54 | COc1ccc(OCc2ccc(/C=N\NC(=O)c3sccc3C)o2)cc1 | 12.1
55 | O=C1CC[C@@H](CN(Cc2ccccn2)Cc2nc(Cc3ccccc3)no2)N1 | 6.67
56 | N#CCCn1cc(C(=O)Nc2ccccc2Br)c(-c2cc3ccccc3o2)n1 | 8.34
